The text below walks through data of publication PMC4336329 (PLoS ONE, 2015).

In all, about 310,000 compounds went through this assay and about 2,200 (0.71%) showed an effect of 50% or more. Effects have a minus sign here. The list shows a part of the results.

human ether-à-go-go-related gene (hERG) potassium channel, sequence (Q12809 whole entry, looked up): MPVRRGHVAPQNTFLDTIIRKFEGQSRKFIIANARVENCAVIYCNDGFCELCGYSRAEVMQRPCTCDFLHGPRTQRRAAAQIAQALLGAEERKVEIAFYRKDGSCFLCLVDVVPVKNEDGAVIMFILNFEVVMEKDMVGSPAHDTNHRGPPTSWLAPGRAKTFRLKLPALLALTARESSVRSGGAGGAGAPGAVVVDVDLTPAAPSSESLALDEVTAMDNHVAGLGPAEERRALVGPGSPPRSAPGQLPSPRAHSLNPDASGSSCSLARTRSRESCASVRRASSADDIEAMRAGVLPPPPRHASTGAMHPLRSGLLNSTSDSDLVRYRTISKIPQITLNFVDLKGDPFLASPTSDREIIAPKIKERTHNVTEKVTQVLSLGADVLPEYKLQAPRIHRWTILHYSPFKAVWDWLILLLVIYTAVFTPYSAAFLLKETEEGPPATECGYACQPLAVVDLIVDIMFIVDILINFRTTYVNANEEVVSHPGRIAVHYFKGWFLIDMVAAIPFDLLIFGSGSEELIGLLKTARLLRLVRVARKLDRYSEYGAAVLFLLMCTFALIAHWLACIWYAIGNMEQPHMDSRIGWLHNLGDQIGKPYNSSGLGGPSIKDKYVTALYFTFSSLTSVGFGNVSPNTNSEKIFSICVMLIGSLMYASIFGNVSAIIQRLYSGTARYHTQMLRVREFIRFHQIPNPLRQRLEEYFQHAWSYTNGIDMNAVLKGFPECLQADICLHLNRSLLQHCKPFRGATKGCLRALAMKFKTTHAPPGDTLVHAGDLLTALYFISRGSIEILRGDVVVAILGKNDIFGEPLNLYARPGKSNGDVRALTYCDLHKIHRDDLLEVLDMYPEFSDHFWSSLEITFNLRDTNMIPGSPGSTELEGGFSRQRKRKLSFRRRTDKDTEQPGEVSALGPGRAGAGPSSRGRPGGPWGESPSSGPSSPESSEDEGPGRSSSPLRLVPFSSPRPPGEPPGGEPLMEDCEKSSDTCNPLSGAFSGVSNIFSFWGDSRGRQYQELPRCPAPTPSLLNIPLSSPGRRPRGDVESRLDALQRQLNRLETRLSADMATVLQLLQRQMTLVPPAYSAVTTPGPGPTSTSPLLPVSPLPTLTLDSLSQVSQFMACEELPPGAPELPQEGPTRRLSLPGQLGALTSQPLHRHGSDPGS

This experiment concerns the target human ether-à-go-go-related gene (hERG) potassium channel (human, UniProt Q12809). The experiment in a line: primary screen, population patch clamp on CHO cells stably expressing hERG.
On to `COCc1cccc(C(=O)NC(c2ccccc2)c2ccccc2)c1`, for which the “hERG current change (%, negative = inhibition) at 1uM” value was -10.1%. In the case of `CCCn1c(C)cc(/C=C(\C#N)C(=O)OCC(=O)NC(=O)NC(C)(C)C)c1C`, the “hERG current change (%, negative = inhibition) at 1uM” value came out at 7.56%. The figure for `O=C1N(c2ccccc2)C(=Nc2ccccc2)SC12CC2` is 20%; for `Cc1ccc(C2N(c3ccc(Cl)cc3)C(=O)N3CCCN23)cc1` (stereo not shown) it is 4.83%. The figure for `COc1cccc(NC(=O)CC(=O)c2ccc([N+](=O)[O-])cc2)c1` is 0.51%; for `CC(C)N1C(=O)CCC1C(=O)NCCc1ccc(Cl)cc1` (stereo not shown) it is 6.79%.

For the compound `COC(=O)CSc1nnc(SCc2ccccc2)s1`, the “hERG current change (%, negative = inhibition) at 1uM” value was found to be 12.5%. With `Cc1ccc(C)c(C(=O)CC2(O)C(=O)N(C)c3ccccc32)c1` (stereo not shown), the “hERG current change (%, negative = inhibition) at 1uM” value was found to be 12.3%. The figure for `CC(C)c1ccc(-n2ccnc2SCC(=O)O)cc1` is 8.94%; for `O=C(COC(=O)c1cccc(Cl)c1Cl)NCc1cccs1` it is 8.1%; for `Cc1cccc(N2CCN(CC(=O)NCC3CCCCC3)CC2)c1C.Cl` it is 2.11%. In the case of `O=C(CN1CCN(Cc2ccc3c(c2)OCO3)CC1)c1c[nH]c2ccccc12`, the “hERG current change (%, negative = inhibition) at 1uM” value is -31.4%. For `CCCCn1c(N)c(N(CC(C)C)C(=O)C2CCN(S(=O)(=O)c3ccccc3)CC2)c(=O)[nH]c1=O`, the “hERG current change (%, negative = inhibition) at 1uM” value was 3.22%. To `COc1ccc(C2C(C(=O)c3ccco3)=C(O)C(=O)N2CC2CCCO2)c(OC)c1` (stereo not shown) belongs 21.2%. To `C/C(Cn1nnc([N+](=O)[O-])n1)=N\NC(=O)c1ccccc1` belongs 4.41%; to `Cc1ccc(-n2c(C(C)n3nc(C)c([N+](=O)[O-])c3C)n[nH]c2=S)cc1` (stereo not shown), -4.1%. The figure for `COc1cc(C2c3c(oc4ccccc4c3=O)C(=O)N2CCN2CCOCC2)cc(OC)c1OC` (stereo not shown) is 0.056%; for `Cc1ccc2[nH]c(=O)c(-c3noc(C(C)C)n3)cc2c1` it is 4.76%. Turning to `Cc1ccc(NC(=O)CCNC(=O)Nc2ccccc2)cc1S(=O)(=O)N(C)C`, the “hERG current change (%, negative = inhibition) at 1uM” value was found to be 5.54%.

In the case of `FC(F)Sc1ccc(-n2c(-c3ccc(Cl)cc3)c[n+]3c2CCC3)cc1.[Br-]`, the “hERG current change (%, negative = inhibition) at 1uM” value is on record as -32.9%. Take `CCOC(=O)N1CCN(C(=O)CN(c2ccccc2OC)S(=O)(=O)c2ccc(C)cc2)CC1`: the “hERG current change (%, negative = inhibition) at 1uM” value is reported as 0.0178%. The figure for `Cc1ccc(NC(=O)CSc2n[nH]c(-c3ccco3)n2)cc1` is 8.19%; for `CCOC(=O)c1c(NC(C)=O)sc2c1CCCNC2=O` it is 6.21%; for `COc1ccc(N(CC(=O)NCCSCc2ccc(Cl)cc2)S(C)(=O)=O)cc1Cl` it is 15%. The figure for `CCN(CC)CCCNc1oc(-c2cccc(Cl)c2)nc1C#N` is -14.9%.

On to `Cc1c(CN2CCN(c3cccc(C(F)(F)F)c3)CC2)c(=O)n(-c2ccccc2)n1C`, for which the “hERG current change (%, negative = inhibition) at 1uM” value is -18.4%.

As to `CC(=O)NC(Cc1cc(C)ccc1C)C(=O)N1CCN(C(=O)Nc2ccc(C(C)=O)cc2)CC1` (stereo not shown), the “hERG current change (%, negative = inhibition) at 1uM” value was -2.7%. The figure for `O=[N+]([O-])c1cccc(-c2ccc(SCc3cccnc3)nn2)c1` is 0.911%.

As for `CC1CC(C)CN(CCCNC(=O)Cn2ncc3c(=O)oc4ccccc4c32)C1` (stereo not shown), the “hERG current change (%, negative = inhibition) at 1uM” value is listed as -12.3%. On to `O=C(Nc1ccc([N+](=O)[O-])cc1)N1CCCCC1`, for which the “hERG current change (%, negative = inhibition) at 1uM” value is recorded as 3.25%. For `CC1=C(C(=O)Nc2ccccc2C(=O)NCCCN2CCN(C)CC2)SCCO1`, the “hERG current change (%, negative = inhibition) at 1uM” value came out at 14.4%.

On to `O=C(COC(=O)c1nc(Cl)ccc1Cl)NC1CCCCC1`, for which the “hERG current change (%, negative = inhibition) at 1uM” value is listed as 13.2%. Turning to `COc1ccc(CCNC(=O)Cn2nnc(-c3ccccc3F)n2)cc1OC`, the “hERG current change (%, negative = inhibition) at 1uM” value amounted to 10.1%.

On to `O=S(=O)(c1ccc(F)c(Cl)c1)N1CCCC1`, for which the “hERG current change (%, negative = inhibition) at 1uM” value is on record as 18.2%. The figure for `O=C(Nc1ccc(F)c(F)c1)c1ccccc1-c1ccccc1` is -2.6%. To `NC(=O)c1ccc(Oc2ccc(C(N)=O)cc2)cc1` belongs 14.2%; to `Nc1ccc(-c2nnn(Cc3ccccc3F)n2)cc1`, 5.25%; to `CN1CCN(c2nc(N3CCN(c4ccccc4)CC3)ncc2F)CC1`, -10.4%.

For the compound `Cc1cccc(-c2noc(CSc3ccccc3)n2)c1`, the “hERG current change (%, negative = inhibition) at 1uM” value amounted to 14.6%. `CCCNC(=S)NNC(=O)c1cc(C2CC2)nc2ccccc12`: the “hERG current change (%, negative = inhibition) at 1uM” value amounted to 16.1%. Regarding `O=C(NCc1ccco1)c1ccc(-c2csnn2)cc1`, the “hERG current change (%, negative = inhibition) at 1uM” value was found to be 7.5%. To `CCOC(=O)C1=C(COC(=O)c2ccc(Cl)cc2[N+](=O)[O-])NC(=O)NC1C` (stereo not shown) belongs 9.96%; to `Cc1ccccc1OCCC(=O)N1CCN(S(=O)(=O)c2ccccc2F)CC1`, 12.5%. Consider `Cc1cc(C(=O)CN2CCC(C)CC2)c(C)n1-c1ccccc1F`, for which the “hERG current change (%, negative = inhibition) at 1uM” value turned out to be 21.2%. To `Cc1ncc(CSc2nc3ccccc3[nH]2)c(N)n1` belongs -12.8%. Take `CCCCCC1CC(CC(=O)O)C(=O)O1` (stereo not shown): the “hERG current change (%, negative = inhibition) at 1uM” value was 2.44%.

As for `CCCOc1ccc(C(=O)NC(=S)NCc2cccnc2)cc1`, the “hERG current change (%, negative = inhibition) at 1uM” value is given as 7.19%.

On to `Cc1nnc(SCc2ccc(C(=O)Nc3cc(Cl)ccc3C)cc2)s1`, for which the “hERG current change (%, negative = inhibition) at 1uM” value was 7.6%. As for `CCOC(=O)C(=O)N/N=C/c1cccc(Br)c1`, the “hERG current change (%, negative = inhibition) at 1uM” value is given as 11.2%.

Turning to `COc1cc(C(=O)N(Cc2ccccn2)CC2CCCO2)cc(OC)c1OC.Cl` (stereo not shown), the “hERG current change (%, negative = inhibition) at 1uM” value was determined as 1.8%.

As to `Cc1ccc(C(=O)OCC(=O)N2CCc3ccccc32)cc1`, the “hERG current change (%, negative = inhibition) at 1uM” value is reported as 15%. Consider `CCCc1nnc(SCC(=O)N2CCCC(C)C2)n1CC1CCCO1` (stereo not shown), for which the “hERG current change (%, negative = inhibition) at 1uM” value is reported as 13.7%. Take `Cc1cccc(NP(=O)(Oc2ccccc2)Oc2ccccc2)c1C`: the “hERG current change (%, negative = inhibition) at 1uM” value stood at 8.04%. To `Cc1nc(NC(=O)c2cc3c(C)nn(-c4ccccc4)c3s2)sc1C(=O)Nc1ccccc1` belongs 10.3%; to `CCN(CC)C1=N/C(=C\c2ccco2)C(=O)N1c1ccccc1`, 4.65%. `CCOC(=O)c1cc(C(C)=O)c(=O)n(C)c1N`: the “hERG current change (%, negative = inhibition) at 1uM” value was 16.6%. To `Cc1cc(NC(=O)/C(C#N)=C/c2ccc(-c3cccc(C(F)(F)F)c3)o2)n(-c2ccccc2)n1` belongs -2.89%; to `CC(OC(=O)CC1CCCCC1)C(=O)Nc1cccc(C#N)c1` (stereo not shown), 6.92%; to `CCc1noc(C)c1C(=O)Nc1nc(-c2ccc(Cl)cc2Cl)cs1`, 5.95%.

`Cc1ccc(-n2c(O)c(C=N)c(=O)n(-c3ccc(C)cc3)c2=O)cc1`: the “hERG current change (%, negative = inhibition) at 1uM” value is given as -2.88%. As to `c1csc(C2CCCN2c2nc3nonc3nc2NC2CC2)n1` (stereo not shown), the “hERG current change (%, negative = inhibition) at 1uM” value came to 8.42%.

As for `NS(=O)(=O)c1ccc(CNC(=O)NC23CC4CC(CC(C4)C2)C3)cc1`, the “hERG current change (%, negative = inhibition) at 1uM” value is given as -4.47%. The figure for `COc1cccc(Oc2cc(Cl)nc(N)n2)c1` is 7.9%; for `COCCCN1C(=O)CS/C1=N\S(=O)(=O)c1ccccc1` it is 7.54%; for `CCn1ncc(/C=C2/SC(=S)NC2=O)c1C` it is 13.9%. To `CN1C(=O)C(=Cc2ccccc2Oc2ccc(Cl)cc2)C(=O)N(C)C1=O` belongs 8.1%; to `CSc1ccc(S(=O)(=O)N2c3ccccc3CC2C)cc1` (stereo not shown), 8.27%. The figure for `CCSC1(SCC)N=C(N)C2(C#N)C(c3ccc(OC)c(OC)c3OC)C12C#N` (stereo not shown) is -2.36%; for `CCN(CC)CCNC(=O)c1ccc2c(c1)ncn2C1CCCCC1` it is 8.87%; for `CCn1c(SCC(=O)Nc2ccc(N3CCOCC3)c(Cl)c2)nnc1-c1ccc(N)cc1` it is 12.3%. Take `CC1Cc2ccccc2N1CC(=O)Nc1ccc(N2CCOCC2)cc1` (stereo not shown): the “hERG current change (%, negative = inhibition) at 1uM” value is recorded as -7.17%. For the compound `Cc1ccc(OCC(=O)Nc2cc(S(=O)(=O)N3CCOCC3)ccc2Cl)c([N+](=O)[O-])n1`, the “hERG current change (%, negative = inhibition) at 1uM” value is 3.61%. The figure for `COc1cc(NC(=O)Nc2ccccc2)c(OC)cc1NC(=O)CN1CCCCC1` is -13.9%. The figure for `c1ccc(-c2nnc3sc(Cc4cccs4)nn23)cc1` is 7.81%.

In the case of `CCCCN(CCCC)S(=O)(=O)c1ccc(SCC(=O)OCC)c([N+](=O)[O-])c1`, the “hERG current change (%, negative = inhibition) at 1uM” value turned out to be 11.7%. To `Cc1ccc(C(=O)C2CCN(S(=O)(=O)c3c(C)noc3C)CC2)cc1` belongs 1.23%. To `CC(=O)c1c(C)c[nH]c1C` belongs 14.9%; to `O=C(COc1ccc(F)cc1Cl)Nc1cc(S(=O)(=O)N2CCOCC2)ccc1N1CCCCC1`, -1.68%; to `COC(=O)Cc1cc(=O)n(-c2ccccc2)[nH]1`, 3.67%. On to `COc1ccccc1CN1CCNC(=O)C1CC(=O)O` (stereo not shown), for which the “hERG current change (%, negative = inhibition) at 1uM” value was 9.48%.

As to `CCCCOc1ccc(S(=O)(=O)NNC(=O)C2Cc3c(ccc4ccccc34)O2)cc1` (stereo not shown), the “hERG current change (%, negative = inhibition) at 1uM” value came out at 17%. To `CCOc1ccc(OCCn2nnc3ccccc3c2=O)cc1` belongs 2.8%.

On to `CCOc1ccc(C(=O)OCC(=O)Nc2ccc(SC(F)F)cc2)cc1OCC`, for which the “hERG current change (%, negative = inhibition) at 1uM” value is -8.45%.

As for `CCn1c(=N)n(CCO)c2ccccc21.Cl`, the “hERG current change (%, negative = inhibition) at 1uM” value was determined as 8.18%. The figure for `CCc1nc2ccc(C(=O)N(C)CC(=O)Nc3cccc(F)c3)cc2nc1CC` is 1.52%; for `Cc1ccc(-c2nnn(CC(=O)NCC3CC3)n2)o1` it is 13.2%.

As to `Cc1nc(Cl)sc1C(=O)Nc1ccc2ccccc2c1`, the “hERG current change (%, negative = inhibition) at 1uM” value was found to be 13.8%. The figure for `COc1ccc(-c2cc(=O)oc3cc(OCC(=O)NCc4ccccn4)ccc23)cc1` is 8.12%; for `CCS(=O)(=O)N1CCN(C(=O)c2cccnc2)CC1` it is 1.01%. With `CN(c1nc2ccccc2[nH]c1=O)C1CCCCC1`, the “hERG current change (%, negative = inhibition) at 1uM” value stood at 4.11%.

`O=C(Nc1ccc([N+](=O)[O-])cc1)c1cccc(S(=O)(=O)Nc2cccnc2)c1`: the “hERG current change (%, negative = inhibition) at 1uM” value is given as 12%.
